PubChem BioAssay AID686971 (National Center for Advancing Translational Sciences (NCATS), 2013)
In all, about 360,000 compounds went through this assay and about 7,500 (2.1%) were called active. This list was built around the results that the source calls inconclusive (neither active nor inactive); the mix of calls is not that of the screen. Calls come from the whole dose curve; as a rule, active = well fitted cell-killing curve with a large enough effect; inconclusive = small, poorly fitted or top-dose-only effect, or effect the other way, or another doubt; inactive = no such curve, though single readings can be large or run the other way. Potencies of inconclusive entries are left out as doubtful fits.

Assay: qHTS for induction of synthetic lethality in tumor cells producing 2HG: qHTS for the HT-1080-IDH1KD cell line;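 for activity, negative = toxicity: 0% = DMSO wells and -100% = cell-free medium wells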
Conditions: HT-1080 IDH1 knockdown viability, ATP luminescence, 48 h; activity, negative = toxicity: at 46.1 µM (top of the series) unless noted
How it was run: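 Using the IDH1-knockdown HT-1080 line run in the same batch and compound series as the NT line, viability after 48 h at 37 °C was determined by CellTiter-Glo luminescence and expressed as % activity.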
Potency is the fitted concentration of half-maximal effect; tags give direction and shape of the fitted curve.

Compound	Potency	activity, negative = toxicity
COc1ccnc(Oc2ccccc2)c1C(=O)N/C=N/OCc1ccc(F)cc1Cl	active: 15.8 µM	–
CCOC(=O)C1=CCN(S(=O)(=O)c2ccc(C)cc2)C1c1ccc(Cl)cc1 (stereo not drawn)	inconclusive [cytotoxic, partial curve]	–
O=C(c1cc(-c2cccs2)nc2ccccc12)N1CCN(c2ccccc2)CC1	inconclusive [cytotoxic, partial curve]	–
Cc1cccc(C)c1C(O)c1ncc(-c2cccc3ccccc23)[nH]1 (stereo not drawn)	inconclusive [cytotoxic, partial curve]	–
COc1ccc(Cc2nc(-c3ccc(NC(=O)c4cccnc4)cc3)no2)cc1	inconclusive [cytotoxic, partial curve]	–
COc1ccc(CNc2cc(C)nc3ccc(OC)cc23)cc1	active: 14.6 µM	–
COc1ccc(/C(C)=N/NC(=S)NCCc2ccccc2)c(O)c1	–	inconclusive: -24.6% [cytotoxic]
Cc1cccc(NC(=O)c2ccc(NC(C)c3ccccc3)c([N+](=O)[O-])c2)n1 (stereo not drawn)	–	inactive: 0.326%
Nc1c(C(=O)Nc2ccc(S(=O)(=O)N3CCCC3)cc2)sc2nc3ccc(OC(F)(F)F)cc3cc12	inconclusive [cytotoxic, full curve]	–
O=C(NCCCO)C(=O)c1c(-c2ccccc2)cc2ccccn12	–	inactive: 17.6%
CCS(=O)(=O)c1ccc2oc(Nc3ccccc3C)nc2c1	inconclusive [cytotoxic, partial curve]	–
COc1ccc(-c2noc(C3CCCN(C(=O)c4ccc(C)cc4)C3)n2)cc1 (stereo not drawn)	active: 16.4 µM	–
CC1Sc2ccc(C(=O)N(CCc3ccccc3)Cc3ccccc3)cc2NC1=O (stereo not drawn)	inconclusive [cytotoxic, single point]	–
OCC1OC(n2cnc3c(=S)nc[nH]c32)CC1O (stereo not drawn)	inconclusive [cytotoxic, single point]	–
Cc1ccc(N/N=C(\Cc2nc3ccccc3[nH]2)c2ccccc2)cc1	active: 0.92 µM	–
O=C(C=Cc1ccco1)c1ccc2ccccc2c1	–	inconclusive: 23.7%
CCOC(=O)c1nnn(-c2nonc2-n2cccc2)c1CCl	inconclusive [cytotoxic, single point]	–
Cn1nc(C(C)(C)C)cc1C(=O)N1CCCCC1c1cc(C(=O)Nc2ccccc2Cl)no1 (stereo not drawn)	inconclusive [cytotoxic, single point]	–
CSc1nc(Cl)cc(Nc2ccc(O)cc2)n1	active: 13 µM	–
O=C(Nc1ccc2c(c1)Cc1ccccc1-2)c1cc2ccccc2o1	inconclusive [cytotoxic, single point]	–
COc1ccc(C(=O)CC(=O)O)c2c1C=CC(C)(C)O2	–	inactive: 1.64%
O=C(C1CCCN1S(=O)(=O)c1ccc(Cl)cc1)N1CCN(c2ccccc2)CC1 (stereo not drawn)	–	inactive: -0.368%
CCOc1ccc(NC(=O)COc2cccc3cccnc23)cc1S(=O)(=O)N1CCCC1	inconclusive [cytotoxic, single point]	–
COc1ccc(NC(=O)CSc2n[nH]c(C)c2[N+](=O)[O-])cc1	inconclusive [cytotoxic, single point]	–
COc1ccc(NC(=O)c2nc(C)c(C3(C)CC(c4cccnc4)=NO3)s2)cc1 (stereo not drawn)	active: 6.51 µM	–

Compound	Potency	activity, negative = toxicity
COc1ccccc1C(=O)Nc1ccnn1C1CCN(Cc2cn(C)c3ccccc23)CC1	inconclusive [cytotoxic, single point]	–
CCCCOC(=O)c1ccc(NC(=O)COC(=O)c2ccc3ncsc3c2)cc1	–	inactive: -25.2%
CN1c2ccsc2/C(=N/Nc2ccccc2)CS1(=O)=O	inconclusive [cytotoxic, single point]	–
COc1ccc2c(Cl)c(C(=O)N/N=C/c3c(C)[nH]c4ccccc34)sc2c1	inconclusive [cytotoxic, single point]	–
O=C(NCCc1cccs1)Nc1nnc([C@H]2C[C@H](O)[C@@H](CO)O2)s1	–	inactive: 3.51%
COc1cc(C(=O)OCC(=O)Nc2c(F)cccc2F)cc(OC)c1C	–	inconclusive: 0%
CCNC(=O)C1(C)CCCN(C(=O)CCc2cccs2)C1 (stereo not drawn)	inconclusive [rising, partial curve, poor fit]	–
CC(=O)OC1(C(C)=O)CCC2C3CC(C(F)(F)F)C4=CC(=O)CCC4(C)C3CCC21C (stereo not drawn)	active: 20.6 µM	–
CCNC(=S)NNC(=O)c1cc(-c2ccccc2C)nc2ccccc12	inconclusive [cytotoxic, single point]	–
Cc1ccccc1C(=O)NCC(=O)OC(C)C(=O)NC(C)CCc1ccccc1 (stereo not drawn)	–	inactive: 4.39%
COCCNC(=O)c1onc(CCl)c1C(=O)OC	–	inactive: -0.592%
Cc1c(C)n(CCN(C)C)c2ccc(C(=O)OCCN(C)C)cc12	inconclusive [cytotoxic, partial curve]	–
O=C(c1ccc(COc2ccccc2Cl)o1)N1CCN(c2ccccc2)CC1	inconclusive [cytotoxic, single point]	–
O=C(N1CCOCC1)N1c2ccccc2Sc2ccccc21	active: 14.1 µM	–
COc1ccc(COc2cc(-c3cccc(OC)c3)nc3ccc(NC(=O)c4ccc(N(C)C)cc4)cc23)cc1	active: 6.51 µM	–
CCC(=O)OCCNc1cc(Sc2nc3ccccc3s2)c2nonc2c1[N+](=O)[O-]	active: 2.82 µM	–
O=C(O)/C(=C\c1ccc(Cl)cc1)c1ccc(F)cc1	–	inactive: 8.77%
CCCCc1ccc(NS(=O)(=O)c2cccs2)cc1	inconclusive [cytotoxic, single point]	–
CCCCN1C(=O)c2cccc3cc(O)cc(c23)C1=O	inconclusive [cytotoxic, partial curve]	–
Cc1cc(=O)oc2cc(OCC3CC(c4ccccc4Cl)=NO3)ccc12 (stereo not drawn)	active: 0.447 µM	–
Clc1ccc(CSc2ncnc3nc[nH]c23)cc1	inconclusive [cytotoxic, single point]	–
CCc1nnc(NC(=O)CSc2nc(C)cc(C)c2C#N)s1	–	inactive: 1.82%
CCOC(=O)C1(Cc2ccccc2)CCN(Cc2ccc(COC)o2)CC1	–	inactive: 7.43%
COc1ccccc1-n1cc([C@@H]2C[C@H]3CN(c4ccccc4)C(=O)[C@]34CCCN24)cn1	active: 5.8 µM	–
Cc1ccccc1OCCNc1cc(N2CCN(CCO)CC2)ccc1[N+](=O)[O-]	active: 14.6 µM	–

Compound	Potency	activity, negative = toxicity
Cc1ccc(Cl)cc1N1CCN(CC(=O)Nc2ccc(CN3CCCCC3)cc2)CC1	active: 23.1 µM	–
O=C(Cn1cnc2ccccc2c1=O)NNC(=O)c1ccccc1	–	inactive: 15.2%
Cc1ccc2c(c1)N(C(=O)CCC(=O)NCCCN1CCC(Cc3ccccc3)CC1)CCO2	inconclusive [cytotoxic, single point]	–
Cc1ccc(NC(=O)CN(C)C(=O)Cc2ccc(Cl)c(Cl)c2)cc1	inconclusive [cytotoxic, single point]	–
COC(=O)c1c(NC(=O)c2ccc(S(=O)(=O)N3CCOCC3)cc2)sc2c1CCN(C)C2	inconclusive [cytotoxic, single point]	–
Cc1cc(C(=O)COC(=O)c2ccc[nH]c2=O)c(C)n1-c1ccc(Br)cc1	–	inactive: -21.7%
Cc1ccc([N+](=O)[O-])c(OCCCN2CCC(Cc3ccccc3)CC2)c1	inconclusive [cytotoxic, single point]	–
COc1ccc(S(=O)(=O)N(C)C[C@@H]2Oc3cc(C#CC4CCCCC4)ccc3S(=O)(=O)N([C@@H](C)CO)C[C@@H]2C)cc1	inconclusive [cytotoxic, single point]	–
CC(O)(CS(=O)(=O)Cc1cccc(C(F)(F)F)c1)C(=O)Nc1cccc(C(F)(F)F)c1 (stereo not drawn)	active: 15.8 µM	–
Fc1cccc(Cl)c1Cn1nnc2c(NCc3ccncc3)ncnc21	inconclusive [cytotoxic, single point]	–
CCCOc1ccc(N2C(=O)CC(S/C(N)=N/N=C(\C)c3cccs3)C2=O)cc1 (stereo not drawn)	inconclusive [cytotoxic, single point]	–
CC1CCCCC1NS(=O)(=O)c1ccc2c(c1)CC(=O)N2C (stereo not drawn)	–	inactive: 0%
CCC(C)[C@H](NC(=O)OC(C)(C)C)C(=O)N/N=C/C1=Cc2ccccc2OC1 (stereo partly drawn)	inconclusive [cytotoxic, single point]	–
CC(C)Cc1csc(NC(=O)c2ccc(Cl)cc2)c1C(=O)O	inconclusive [cytotoxic, single point]	–
COc1ccc(Oc2nc(-c3ccccn3)nc3ccccc23)cc1	inconclusive [cytotoxic, partial curve]	–
CS(=O)(=O)Nc1cccc(-c2cc(NC=O)c3ncc(-c4ccc(F)cc4)n3c2)c1	active: 8.2 µM	–
O=C(Cc1ccc(NC2=NC3CS(=O)(=O)CC3S2)cc1)NCCc1ccccc1 (stereo not drawn)	–	inactive: -2.5%
COc1cccc(C(=O)N/N=c2\sc3ccccc3n2C)c1	–	inactive: 19%
CCOc1ccc(C(C(=O)NC2CCCCC2)N(CCOC)C(=O)c2snc(C(N)=O)c2N)cc1 (stereo not drawn)	–	inactive: -0.198%
CC(C)(C)c1nc2ccccc2c2nnc(SCC(=O)Nc3nc4ccccc4s3)n12	inconclusive [cytotoxic, single point]	–
CC(=O)NC(CC(C)C)C(=O)NC(Cc1ccccc1)C(=O)CCl (stereo not drawn)	inconclusive [cytotoxic, single point]	–
C[C@@H](NC(=O)/C(C#N)=C/c1ccc(O)c(O)c1)c1ccccc1	inconclusive [cytotoxic, partial curve]	–
CCCCOc1ccc(CSCCNC(=S)Nc2ccccc2)cc1	inconclusive [cytotoxic, single point]	–
